26 molecules from PubChem BioAssay AID1508642 (National Center for Advancing Translational Sciences (NCATS), 2021) can be followed below.

About 200 (0.47%) of roughly 43,000 compounds were called active. Not shown: some 12% with an inconclusive outcome. Calls follow the shape of the dose curve; as a rule, active = well fitted cell-killing curve with a large enough effect; inconclusive = small, poorly fitted or top-dose-only effect, or effect the other way; inactive = flat fitted curve, though single readings scatter. The list shows a part of the results.
% is scaled to controls: 0 for no effect and ±100 for the full control effect.

This test is described as follows: Cell viability qHTS assay in S16 Pmp22-F2sN cells. Also: nearly all actives have a fitted effect of over 65% in size. As to conditions: S16 Pmp22-F2sN Schwann cells viability, CellTiter-Glo, 24 h; series mostly up to 57.5 µM; activity change, negative = cytotoxicity: at the top concentration. An outline of the steps: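 Used to flag compounds lowering reporter output through toxicity, this quantitative HTS measures ATP-based CellTiter-Glo luminescence in S16 Pmp22-F2sN Schwann cells after 24 h compound exposure at 37C.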
As to `COc1cccc(NC(=O)c2oc3ccc(S(=O)(=O)N4CCCCCC4)cc3c2C)c1`, the “activity change, negative = cytotoxicity” value is inactive: -1.82%.
Then `COc1ccc(S(=O)(=O)NCC(c2ccc(N(C)C)cc2)N2CCc3ccccc32)cc1F` (stereo unspecified), with inactive: -4.91%; and `Cc1cc(C)n2nc(CNS(=O)(=O)c3ccccc3)nc2n1`, with inactive: 11.9%; and `CCOC(=O)c1ccccc1NC(=O)COC(=O)CC(C)(C)CC1=NS(=O)(=O)c2ccccc2N1`, with inactive: -26.3%.
As to `COCCNc1oc(-c2ccc(OC)cc2)nc1C#N`, the “activity change, negative = cytotoxicity” value was inactive: 17.2%.
For `CCOC(=O)Cc1c(C(=O)OCC)nnc2c(-c3ccccc3)c(C)nn12`, the “activity change, negative = cytotoxicity” value was inactive: 17.5%.
As for `CC(=O)c1ccc(NC(=O)CC2Oc3ccc(C)cc3NC2=O)cc1` (stereo unspecified), the “activity change, negative = cytotoxicity” value is inactive: 10.8%.
In the case of `CCOC(=O)c1cccc(NC(=O)N2CC=C(c3c[nH]c4ccccc34)CC2)c1`, the “activity change, negative = cytotoxicity” value is inactive: -0.999%.
Consider `CCN(CC)C(=O)Cn1c(=O)n(CCc2ccccc2)c(=O)c2ccccc21`, for which the “activity change, negative = cytotoxicity” value is inactive: 10.2%.
For the molecule `CCCNC(=O)N1[C@H](c2cccs2)[C@@H](C)C(=O)[C@@H](C)[C@@H]1c1cccs1`, the “activity change, negative = cytotoxicity” value was inactive: -8.06%.
Under `Cc1cc(Nc2ccc(Br)c(C)c2)n2nc(-c3ccco3)nc2n1` stands inactive: -18.3%; under `Cc1cccc(Nc2nnc(-c3ccc(C)c(S(=O)(=O)N4CCN(C)CC4)c3)c3ccccc23)c1`, inactive: -18.6%; under `Cc1nn2c(=O)cc(COC(=O)c3cccc(NC(=O)c4ccc(F)cc4)c3)nc2s1`, inactive: 11.7%.
Then `Cc1ccc(Cl)cc1NC(=O)Cn1c(=O)n(C(C)C)c(=O)c2oc3ccccc3c21`, with inactive: 21.5%.
On to `Cc1cccc(C(C)C)c1NC(=O)c1ccc2c(c1)CCN2S(C)(=O)=O`, for which the “activity change, negative = cytotoxicity” value is inactive: -23.9%.
As to `CC(=O)Nc1cccc(NC(=O)CSc2ccc(-c3sc(-c4ccccc4)nc3C)nn2)c1`, the “activity change, negative = cytotoxicity” value was inactive: 12.9%.
Regarding `O=C(O)CCc1ccc(-c2ccccc2)n1-c1ccc(C(=O)O)cc1`, the “activity change, negative = cytotoxicity” value was inactive: 12.6%.
With `CCn1c(CN2CCC(C)CC2)nc2cc(NC(=O)c3ccc([N+](=O)[O-])cc3)ccc21`, the “activity change, negative = cytotoxicity” value was inactive: 9.24%.
Turning to `CC(C)CCNC(=O)C(=O)Nc1c2c(nn1-c1ccc(Cl)cc1)CSC2`, the “activity change, negative = cytotoxicity” value is inactive: -9.11%.
For `Cc1ccc(-n2nc(-c3ccccc3)c3cnc4cc5c(cc4c32)OCO5)cc1C`, the “activity change, negative = cytotoxicity” value was inactive: -6%.
Under `CCN(C(=O)CN1C(=O)COc2ccc(S(=O)(=O)N3CCOCC3)cc21)c1ccc(OC)cc1` stands inactive: 8.18%; under `O=C(Nc1nnc(S(=O)(=O)N2CCCCC2)s1)c1ccccc1Br`, inactive: 4.23%; under `Cc1ccc(NC(=O)c2ccc3c(O)c(S(=O)(=O)c4ccccc4)c(=O)[nH]c3c2)cc1Cl`, inactive: -4.53%.
As for `Cc1ccc(-c2nnc(Nc3ccc(C(=O)N(C)C)cc3)c3ccccc23)cc1S(=O)(=O)N(C)C`, the “activity change, negative = cytotoxicity” value is inactive: 19.9%.
Take `COC(=O)c1ccccc1NC(=O)C1CCN(C(=O)N2CC(C)Oc3ccccc32)CC1` (stereo unspecified): the “activity change, negative = cytotoxicity” value is inactive: 1.94%.
As to `COc1ccc(-c2nc3ccccc3s2)cc1NC(=O)c1ccc(F)cc1`, the “activity change, negative = cytotoxicity” value is inactive: 10.9%.
